The results in this text go back to article PMC10668032.

The list shows a part of the results. At the low end of the ranking the order means little.

This experiment addresses SIX1-Q177R homeodomain (UniProt Q15475). Description: universal protein binding microarray. The settings on record: Universal all-10-mer PBM (8x60K, AMADID 030236), 300 nM GST-tagged protein, Alexa Fluor 488 anti-GST; buffer, salt, pH and temperature not stated; high values mean tight binding; most listed sequences are background and not binding sites; double strand, one strand shown.
ACGTCCTA: the binding signal is -0.165 E-score.

On to GAATCACC, for which the binding signal is -0.107 E-score.

As to CACACAAG, the binding signal turned out to be 0.0217 E-score.

As for TCTGTAAA, the binding signal is -0.113 E-score.

In the case of ACCAGCTA, the binding signal was -0.0338 E-score.

Regarding CGTGATAG, the binding signal was 0.0429 E-score.

As for ATGTAAAA, the binding signal was -0.223 E-score.

As to CTGACATA, the binding signal is -0.202 E-score.

With CATTACTA, the binding signal was -0.241 E-score.

For the sequence GTGCGACA, the binding signal was 0.137 E-score.

Consider CTCGTATA, for which the binding signal is -0.00683 E-score.

With GATTGAGC, the binding signal is -0.259 E-score.

GAGCCCGC: the binding signal is -0.0533 E-score.

Take GACACGCA: the binding signal turned out to be 0.416 E-score.

In the case of CATGGACA, the binding signal is 0.216 E-score.

For ATGGCTGC, the binding signal was -0.109 E-score.

Consider TACCTAAA, for which the binding signal amounted to 0.0177 E-score.

With AGGCGATG, the binding signal is -0.11 E-score.

CTTCGCGA: the binding signal was -0.0347 E-score.

As to ATGGACAC, the binding signal turned out to be 0.419 E-score.

Turning to GCACCGAA, the binding signal came to 0.156 E-score.

For ACCAAGGG, the binding signal was found to be 0.0725 E-score.

Take ATCCAAAG: the binding signal is -0.0931 E-score.

For the sequence CCACAAAC, the binding signal was -0.141 E-score.

Regarding GCATACCA, the binding signal was -0.00817 E-score.

On to GCAGGTCA, for which the binding signal is -0.123 E-score.

On to GCTTGCCA, for which the binding signal was -0.386 E-score.

As to CCGCGCGA, the binding signal was -0.1 E-score.

TACTACTA: the binding signal amounted to 0.149 E-score.

Turning to GTCGTCGA, the binding signal was -0.224 E-score.

CCTGAAGC: the binding signal is -0.0924 E-score.

In the case of GTTTGGCA, the binding signal is -0.224 E-score.

Consider GATATTCC, for which the binding signal is 0.0355 E-score.

As for AAAGTTAG, the binding signal came out at 0.0271 E-score.

In the case of CCACCGCA, the binding signal was -0.0604 E-score.

Consider GATGCAGC, for which the binding signal was -0.309 E-score.

Consider ACAAATCC, for which the binding signal was -0.0739 E-score.

Regarding AAAGTCGT, the binding signal is -0.11 E-score.

Take CGGCTAAC: the binding signal is -0.106 E-score.

For AGGATAAT, the binding signal turned out to be 0.142 E-score.

On to GGCGAGTA, for which the binding signal is -0.0111 E-score.

For TCCCTGAA, the binding signal came out at 0.077 E-score.

Consider TAGAACGA, for which the binding signal was -0.0274 E-score.

On to AGCTTTTC, for which the binding signal was -0.211 E-score.

Consider GACAACAA, for which the binding signal was -0.109 E-score.

Take CGTTTACC: the binding signal was -0.065 E-score.

Take GTTGTTGA: the binding signal was -0.00187 E-score.

Consider ATGACACG, for which the binding signal is 0.449 E-score.

As to CCACTGGA, the binding signal came out at 0.206 E-score.

For TTAAACAA, the binding signal is -0.159 E-score.

With CAGCTGAA, the binding signal was -0.00674 E-score.

Consider TAAGTACA, for which the binding signal came to 0.148 E-score.

With CTCAACTA, the binding signal was -0.101 E-score.

For the sequence CAAATATG, the binding signal was -0.0951 E-score.

With AAATTATT, the binding signal is -0.269 E-score.

For the sequence CCAGGAAG, the binding signal is -0.111 E-score.

For CGTAAGTC, the binding signal is 0.0152 E-score.

Regarding AGCGACGC, the binding signal turned out to be 0.0076 E-score.

Turning to GAAACCGC, the binding signal came to 0.0761 E-score.

AGTACGCC: the binding signal was found to be 0.0535 E-score.

ATAGTTGC: the binding signal was -0.251 E-score.

On to AAGAAAAC, for which the binding signal is 0.0158 E-score.

In the case of TAGCCATA, the binding signal was -0.0729 E-score.

As for CCTATCCC, the binding signal was found to be 0.0396 E-score.

For GTTGCGAA, the binding signal was -0.183 E-score.

For the sequence CGTTATAC, the binding signal turned out to be 0.0755 E-score.

Turning to AGCGTGAT, the binding signal was -0.0159 E-score.

With AAACTACT, the binding signal is -0.0121 E-score.

As for CGTGGGCC, the binding signal was -0.272 E-score.

For the sequence GATGGAAC, the binding signal was -0.218 E-score.

CAAGCTTA: the binding signal is -0.0678 E-score.

Take ACCGCAAT: the binding signal was -0.00265 E-score.

CTAGCGCA: the binding signal is -0.154 E-score.

For AGAGGTTA, the binding signal is -0.12 E-score.

Regarding ACATTATG, the binding signal is -0.0859 E-score.

Regarding AGTTTCCG, the binding signal was -0.205 E-score.

Regarding CATATATC, the binding signal is -0.067 E-score.

For AGCTGCCC, the binding signal is -0.0363 E-score.

As to AACGATCG, the binding signal is -0.141 E-score.

Consider ACGATCAC, for which the binding signal was -0.0516 E-score.

As for CAAATAGA, the binding signal was -0.178 E-score.

On to CATGCGAA, for which the binding signal is -0.172 E-score.

On to AGGCATTA, for which the binding signal was -0.142 E-score.

Turning to ACGCTTGC, the binding signal is -0.000685 E-score.

With GTTAGCAA, the binding signal is 0.0242 E-score.

Turning to AGACTCTC, the binding signal is -0.176 E-score.

In the case of CTATACGC, the binding signal was -0.0146 E-score.

Consider ATATATTG, for which the binding signal was -0.122 E-score.

On to AGAATCCA, for which the binding signal is -0.0643 E-score.

For GACTGTGA, the binding signal is -0.214 E-score.

As for CTGGACCC, the binding signal is -0.0556 E-score.

Take GGTATACC: the binding signal is 0.303 E-score.

With GCTGAGTA, the binding signal is -0.121 E-score.

Consider CCGAGCGA, for which the binding signal is 0.0518 E-score.

On to CGCAGGAC, for which the binding signal is -0.0831 E-score.

On to CCATAAGG, for which the binding signal stood at 0.065 E-score.

For CAGGATGC, the binding signal was -0.21 E-score.

As to GGATGGAC, the binding signal was -0.148 E-score.

Regarding CCTAATTC, the binding signal was -0.105 E-score.

Turning to CGTTAACA, the binding signal turned out to be 0.0987 E-score.

As for AACTACAT, the binding signal is -0.0188 E-score.

Consider CTTGATAC, for which the binding signal was found to be 0.195 E-score.

With GTACGGCA, the binding signal turned out to be 0.0153 E-score.

Take CTACGCTA: the binding signal was -0.0821 E-score.

AATCATCG: the binding signal was -0.187 E-score.

Take ACGTTCAA: the binding signal is 0.0393 E-score.

Turning to CCGGAAAG, the binding signal is -0.103 E-score.

Take AGGTGGGC: the binding signal was -0.0578 E-score.

For GCGGTAGC, the binding signal is -0.0763 E-score.

In the case of ATCAGATA, the binding signal amounted to 0.0994 E-score.

Regarding CTTCGATC, the binding signal was -0.0851 E-score.

As to CTCAGCGC, the binding signal is -0.151 E-score.

Regarding CCGAGAGG, the binding signal is -0.186 E-score.

Take AATGCAAT: the binding signal is -0.207 E-score.

In the case of CAGCACAA, the binding signal is -0.00564 E-score.

In the case of ATTTGCCG, the binding signal is -0.0409 E-score.

Consider ATATGGAA, for which the binding signal was -0.101 E-score.

Turning to AAGCGAGG, the binding signal is -0.0201 E-score.

With AAGCTAAT, the binding signal is -0.28 E-score.

In the case of CGAAAAAC, the binding signal turned out to be 0.0789 E-score.

In the case of ACCACAAT, the binding signal came out at 0.0527 E-score.

For the sequence GACATCCA, the binding signal was -0.135 E-score.

Turning to ATGAAACC, the binding signal is 0.0557 E-score.

On to CATCCAAG, for which the binding signal amounted to 0.00459 E-score.

On to TAGGACAA, for which the binding signal is -0.147 E-score.

As to ATCGGCGA, the binding signal is -0.0714 E-score.

Consider CATTCTGG, for which the binding signal was -0.107 E-score.

With ACGACAGT, the binding signal is -0.233 E-score.

Regarding ATACGCTA, the binding signal turned out to be 0.0121 E-score.

Turning to GAATCTTA, the binding signal is -0.241 E-score.

In the case of ATGCCTGG, the binding signal is -0.0189 E-score.

Consider AGAAGCTA, for which the binding signal was -0.205 E-score.

For the sequence AGATATGA, the binding signal is -0.106 E-score.

As for CATGCTGC, the binding signal is -0.0554 E-score.

For the sequence CCGTGGGA, the binding signal is -0.0725 E-score.

On to AGAACGAC, for which the binding signal is 0.0149 E-score.

Take AGCGCATC: the binding signal was -0.198 E-score.

Turning to GTTGTGCA, the binding signal stood at 0.0787 E-score.

As for GGCGTTAC, the binding signal was 0.154 E-score.

Turning to GGGGTATA, the binding signal turned out to be 0.274 E-score.

As to AAGAATCC, the binding signal is -0.144 E-score.

TGGTAAAA: the binding signal is -0.262 E-score.

In the case of ACTTATTG, the binding signal is -0.144 E-score.

In the case of AGCCTCGG, the binding signal was -0.15 E-score.

Consider ACACCTCC, for which the binding signal was 0.472 E-score.

Turning to CAAGTGCA, the binding signal turned out to be 0.0819 E-score.

Turning to ACACCCAT, the binding signal was found to be 0.458 E-score.

For the sequence ACATTCTC, the binding signal was -0.292 E-score.

For ACCCCTAT, the binding signal is 0.172 E-score.

Regarding AAAACAGG, the binding signal was -0.0885 E-score.

CTCCGCAG: the binding signal was -0.0804 E-score.

For the sequence ACGACAAG, the binding signal was 0.0771 E-score.

With TAGCGGGA, the binding signal is -0.201 E-score.

On to CGTCTGCA, for which the binding signal was -0.091 E-score.

Turning to CCCCAGTA, the binding signal is 0.0966 E-score.

Consider TGGGCACA, for which the binding signal was -0.0583 E-score.

Consider AGCGTCTC, for which the binding signal was -0.0572 E-score.

For AGGCGACG, the binding signal was -0.103 E-score.

Regarding AGGCTAGA, the binding signal was -0.0743 E-score.

As for GGTACAGA, the binding signal was -0.119 E-score.

In the case of AATGTCTC, the binding signal came out at 0.0254 E-score.

In the case of AGTCCGGC, the binding signal was -0.00563 E-score.

As to CTGGACTC, the binding signal is -0.12 E-score.

Turning to AATAGAGT, the binding signal was 0.0466 E-score.

In the case of AAGGATTC, the binding signal was -0.0467 E-score.

For the sequence CATTATGC, the binding signal was -0.0391 E-score.

In the case of TCTACAGA, the binding signal is -0.176 E-score.

Consider AACCTCGG, for which the binding signal stood at 0.0562 E-score.

Consider CATTCATA, for which the binding signal was -0.164 E-score.

ATAGAACA: the binding signal turned out to be 0.141 E-score.

As to ATCCACAC, the binding signal stood at 0.297 E-score.

In the case of GTCAGGAC, the binding signal came to 0.0108 E-score.
